Results published in the supplement of paper PMC5919970.
Where “and” joins values, the source holds several entries; their conditions need not be identical. Identical values can stand only once. Counter-ions that a name gives are not always drawn. The full ranking holds about 2,000 compounds; the median of “fractional viability relative to vehicle” is about 0.91, and the lowest 2% start at about 0.045. Some of the results follow.

Tested on: TYKNU
Assay: fractional viability relative to vehicle; TYKNU is a high-grade serous ovarian cancer line; higher = less growth inhibition
Conditions: 72 h
Procedure, shortened: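 TYKNU control cells or lentiCRISPRv2 knockout derivatives were plated at 500 cells per well in duplicate into drug-stamped 384-well plates holding a ~2100-compound library at 2 or 10 μM. Culture was in RPMI 1640 with 10% FBS at 37 °C in 5% CO2, with 72 h of drug treatment. Viability was measured by Cell Titer Glo luminescence, and the averaged duplicate treatment wells were normalised to duplicate control wells at the same plate position.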

[1] = 2uM, genotype: DNM1L knockout (sgDNM1L #1)
[2] = 2uM, genotype: sgCTRLA1 (non-targeting control)
[3] = 10uM, genotype: DNM1L knockout (sgDNM1L #1)
[4] = 10uM, genotype: sgCTRLA1 (non-targeting control)

| SMILES | fractional viability [1] | fractional viability [2] | fractional viability [3] | fractional viability [4] |
| --- | --- | --- | --- | --- |
| O=C(O)c1cccnc1 [Nicotinic Acid] | 0.906 | 1.11 | 0.981 | 1.05 |
| Cc1cccc(N(C)C(=S)Oc2ccc3ccccc3c2)c1 [Tolnaftate] | 0.993 | 1.16 | 0.875 | 1.07 |
| C=CCNC1=C2C[C@@H](C)C[C@H](OC)[C@H](O)[C@@H](C)/C=C(\C)[C@H](OC(N)=O)[C@@H](OC)/C=C\C=C(/C)C(=O)NC(=CC1=O)C2=O [17-AAG (Tanespimycin)] | 0.316 | 0.226 | 0.298 | 0.217 |
| CN1CCN(c2ccc3nc(-c4c(N)c5c(F)cccc5[nH]c4=O)[nH]c3c2)CC1 [Dovitinib (TKI-258, CHIR-258)] | 0.523 | 0.465 | 0.119 | 0.0963 |
| CN1CCN(c2ccc3nc(-c4c(N)c5c(F)cccc5[nH]c4=O)[nH]c3c2)CC1 [Dovitinib (TKI258) Lactate] | 0.398 | 0.423 | 0.0366 | 0.0252 |
| O=c1[nH]c(=O)n([C@H]2C[C@H](O)[C@@H](CO)O2)cc1I [Idoxuridine] | 0.843 | 1.07 | 0.836 | 0.886 |
| COc1ccc(-c2ccc3cc(C(=O)O)ccc3c2)cc1C12CC3CC(CC(C3)C1)C2 [Adapalene] | 0.709 | 1.02 | 0.367 | 0.414 |
| COc1cc2c(NC3CCN(CC4CCCCC4)CC3)nc(N3CCCN(C(C)C)CC3)nc2cc1OCCCN1CCCCC1 | 0.657 | 0.723 | 0.0227 | 0.00884 |
| NNC(=O)c1ccncc1 [Isoniazid] | 0.893 | 1.14 | 0.875 | 1.06 |
| CC1(C)C=C(CN2C/C(=C\c3ccc(F)cc3)C(=O)/C(=C/c3ccc(F)cc3)C2)C(C)(C)N1O | 0.773 | 0.973 | 0.847 | 0.755 |
| Cc1ccc(S(=O)(=O)OCC(=O)Nc2ccc(C(=O)O)c(O)c2)cc1 | 0.988 | 1.1 | 0.977 | 1.16 |
| C[C@H]1C[C@H]2[C@@H]3CCC4=CC(=O)C=C[C@]4(C)[C@H]3C(=O)C[C@]2(C)[C@@]1(O)C(=O)CO [Meprednisone] | 1.04 | 1.07 | 1.12 | 1.09 |
| O=C(O)CCCN1CCC(O[C@@H](c2ccc(Cl)cc2)c2ccccn2)CC1 [Bepotastine Besilate] | 1.03 | 1.1 | 0.893 | 1 |
| O=C(NC(Cc1cc(=O)[nH]c2ccccc12)C(=O)O)c1ccc(Cl)cc1 (stereo not drawn) [Rebamipide] | 1.07 | 1.02 | 0.978 | 0.847 |
| COc1ccc2[nH]cc(/C=C3\C(=O)Nc4ccc(NC(=O)CCN5CCCCC5)cc43)c2c1 | 0.761 | 0.929 | 0.809 | 0.795 |
| COC(=O)/C=C/C(=O)OC [Dimethyl Fumarate] | 0.886 | 1.07 | 0.762 | 1.12 |
| CC(C)c1cc(C(C)C)c(CC(=O)NS(=O)(=O)Oc2c(C(C)C)cccc2C(C)C)c(C(C)C)c1 [Avasimibe] | 0.829 | 1.14 | 0.685 | 0.95 |
| O=C(NNc1nc2cc(F)ccc2n2cccc12)c1cnccn1 | 0.358 | 0.282 | 0.269 | 0.247 |
| CN1CCN(Cc2ccc(-c3cnc4[nH]cc(-c5ccc6[nH]ccc6c5)c4c3)cc2)CC1 | 0.871 | 0.867 | 0.803 | 0.55 |

| SMILES | fractional viability [1] | fractional viability [2] | fractional viability [3] | fractional viability [4] |
| --- | --- | --- | --- | --- |
| CCOC(=O)C1=C(C)NC(C)=C(C(=O)OC)C1c1cccc(Cl)c1Cl (stereo not drawn) [Felodipine] | 0.974 | 1.09 | 0.62 | 0.833 |
| O=C1c2c(O)ccc(O)c2C(=O)c2c(NCCNCCO)ccc(NCCNCCO)c21 [Mitoxantrone] | 0.0816 | 0.0813 | 0.163 | 0.102 |
| O=C1c2c(O)ccc(O)c2C(=O)c2c(NCCNCCO)ccc(NCCNCCO)c21 [Mitoxantrone HCl] | 0.0827 | 0.13 | 0.12 | 0.0844 |
| CCOC(=O)c1ccc(NC2CCCCC2)c(N)c1 [Ferrostatin-1 (Fer-1)] | 0.882 | 1.21 | 0.89 | 1.15 |
| CC1(C)CC[C@]2(NC(=O)C(C)(F)F)CC[C@]3(C)[C@H](C(=O)C=C4[C@@]5(C)C=C(C#N)C(=O)C(C)(C)[C@@H]5CC[C@]43C)[C@@H]2C1 [Omaveloxolone (RTA-408)] | 0.0849 | 0.0407 | 0.0223 | 0.00825 |
| CCCCc1ncc(/C=C(\Cc2cccs2)C(=O)O)n1Cc1ccc(C(=O)O)cc1 [Eprosartan Mesylate] | 1.08 | 1.19 | 0.878 | 1.08 |
| CN1CCN2c3ccccc3Cc3ccccc3C2C1 (stereo not drawn) [Mianserin HCl] | 0.971 | 1.12 | 1.04 | 0.982 |
| CN1CCCN(C(=O)c2cccc(-c3ccc(/C=C4/C(=O)Nc5ccc(Cl)cc54)o3)c2)CC1 | 0.0585 | 0.0575 | 0.0139 | 0.00867 |
| CCCCCCCCOc1ccccc1C(=O)Nc1ccc(C(=O)OCC[N+](C)(CC)CC)cc1 [Otilonium Bromide] | 1.09 | 1.11 | 0.627 | 0.896 |
| CN(c1ncccc1CNc1nc(Nc2ccc3c(c2)CC(=O)N3)ncc1C(F)(F)F)S(C)(=O)=O | 0.755 and 0.589 and 0.763 | 0.978 and 0.761 and 1.01 | 0.235 and 0.298 and 0.207 | 0.262 and 0.214 and 0.253 |
| CCc1ccc(OCc2ccccc2C(=O)Nc2ccc3nc(C)cc(N)c3c2)cc1 | 0.117 | 0.166 | 0.0139 | 0.00672 |
| CN(C)CCc1c[nH]c2ccc(CS(=O)(=O)N3CCCC3)cc12 [Almotriptan Malate] | 1.02 | 1.18 | 0.947 | 1.02 |
| Cn1nc(C(C)(C)C)cc1C(=O)N[C@@H](Cc1cccc(Cl)c1)C(=O)NCC#N [Cathepsin Inhibitor 1] | 1.08 | 1.11 | 0.773 | 1.05 |
| Clc1cccc(CN=C2Nc3ccccc3NC23CCNCC3)c1 [Liproxstatin-1] | 0.75 | 0.957 | 0.646 | 0.651 |
| CC(CNC(=O)c1cccnc1)NC(=O)c1cccnc1 (stereo not drawn) [Nicaraven] | 0.754 | 1.07 | 0.726 | 0.99 |
| O=C(Nc1ccccc1)N1CCN(c2nc(-c3ccccc3)ns2)CC1 | 1.06 | 1.14 | 0.828 | 0.976 |
| Cc1cnc(NC(=O)Nc2cc(Br)c(C)cc2OC[C@@H]2CNCCO2)cn1 | 0.271 | 0.253 | 0.185 | 0.122 |
| Cc1ccc(Sc2cncc3sc(C(N)=O)cc23)cc1 | 1 | 1.16 | 0.952 | 1.26 |
